Experimental data reported in ChEMBL document CHEMBL4888484, “Replenishing the malaria drug discovery pipeline: Screening and hit evaluation of the MMV Hit Generation Library 1 (HGL1) against asexual blood stage Plasmodium falciparum ,using a nano luciferase reporter read-out” (2022).
About 540 (0.36%) of roughly 150,000 compounds showed an effect of 50% or more. This is one part of the list.

Tested on: Plasmodium falciparum
Assay: Primary screen in NF54 nanoGlo assay, in single point, at 2uM, 72h; a lower Z score goes with more inhibition
Format: functional, Erythrocyte
Conditions: timepoint 72 hour

| Compound | % Inhibition [%] | Z score |
| --- | --- | --- |
| CC1CC1c1ccc(CN(C)C(=O)C(C)n2cncn2)o1 (stereo not drawn) | -11 | 1.59 |
| O=C1NCC(=O)N2C(c3ccccc3)c3[nH]c4ccccc4c3C[C@@H]12 (stereo partly drawn) | 5 | -0.6 |
| C[C@@H]1CN(C(=O)CN2C[C@@H]3CC[C@H]2CN(Cc2ccccn2)C3)C[C@H](C)O1 | -19 | 1.87 |
| O=c1[nH]c(NCC2CCOCC2)nc2c1Cc1ccccc1OC2 | -6 | 1.06 |
| Cc1ccc(-c2nnc([C@H](C)Nc3ccc4oc(C)nc4c3)o2)cc1 | -24 | 2.13 |
| O=C(NCc1cccc2[nH]ccc12)c1ccc2occc2c1 | -6 | 0.99 |
| Cc1cccc(NC(=O)N[C@@H](C)c2nnc(C(F)(F)F)[nH]2)c1F | -13 | 1.77 |
| c1ccc(Oc2ccnc(N3CCCC[C@H]3c3ncccn3)n2)cc1 | -6 | 0.77 |
| CCOC(=O)c1noc2ncnc(N3CCCC[C@@H]3C)c12 | 6 | -1.11 |
| CC(=O)Nc1ccc(C(=O)N(CCc2ccccc2)C2CCN(C)CC2)cn1 | -9 | 1.29 |
| CN(C)c1cc(C(=O)N[C@H]2CCCCNC2=O)ccn1 | -9 | 1.68 |
| COc1c(C)cnc(CN2CCC(c3nnc[nH]3)CC2)c1C | 4 | -0.78 |
| O=C(Nc1ccccc1)Nc1ccnn1C1CCCC1 | 3 | -0.46 |
| CCn1ccc2c(CN(C)[C@H](c3ccccn3)C3CC3)cccc21 | 1 | -0.12 |
| O=C(O)C[C@H]1CCCCN1C(=O)CC1=CCCCC1 | -8 | 1.08 |
| CC(C)[C@H](Nc1ncncn1)c1nccn1C | 18 | -2.43 |
| Cc1nn(-c2nc(C)c(C)c(=O)[nH]2)c(C)c1CCC(=O)N1CCc2ccccc2C1 | -22 | 2.81 |
| CCCC[C@H](NCC=C(C)C)c1cccnc1 | 5 | -0.57 |
| Cc1nc(C)c([C@H](C)N(C)S(=O)(=O)C2COC2)s1 | 0 | 0.02 |
| Cc1cncc([C@H](C)Nc2ccc3c(c2)CCC(=O)N3CC2CC2)c1 | 1 | -0.2 |
| O=C(N[C@H]1CCOc2ccccc21)c1ccc(=O)[nH]c1 | -11 | 1.1 |
| CC(C)N(CC(=O)Nc1nc(CC(=O)Nc2ccccc2F)cs1)C(=O)c1ccc(Cl)c(Cl)c1 | -5 | 0.61 |
| O=C(c1cn[nH]c1)N1CCN(c2ccc(C(F)(F)F)cc2)CC1 | -7 | 0.99 |
| Cc1ccc(Cn2c(=O)c(C(=O)N3CCN(C)CC3)nn(-c3cccc(F)c3)c2=O)cc1 | 1 | -0.13 |
